Assay [1] addresses T1, septin 11, endogenous in HAEC (human (endogenous in HAEC)) (UniProt Q9NVA2).
T1 sequence: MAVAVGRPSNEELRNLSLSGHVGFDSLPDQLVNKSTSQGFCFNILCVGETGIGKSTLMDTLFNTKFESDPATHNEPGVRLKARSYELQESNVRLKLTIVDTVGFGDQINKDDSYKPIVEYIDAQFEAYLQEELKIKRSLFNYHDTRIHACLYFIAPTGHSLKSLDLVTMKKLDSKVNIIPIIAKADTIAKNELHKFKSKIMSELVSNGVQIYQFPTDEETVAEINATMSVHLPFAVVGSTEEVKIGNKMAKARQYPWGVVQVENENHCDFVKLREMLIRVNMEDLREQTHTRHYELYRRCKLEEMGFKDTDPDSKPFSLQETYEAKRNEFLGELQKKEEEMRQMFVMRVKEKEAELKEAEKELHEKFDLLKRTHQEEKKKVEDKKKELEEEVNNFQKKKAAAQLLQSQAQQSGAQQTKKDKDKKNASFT
The assay can be described thus: co-IP; endogenous proteins in HAEC lysate (25 mM Tris-HCl pH 7.4, 150 mM NaCl, 1% NP-40, 1 mM EDTA, 5% glycerol); IP with anti-ERα, anti-septin 11 or anti-MKK7, 4 °C overnight; cells treated with vehicle, E2 or 27HC (0 to 30 min); immunoblot. Background: In western blotting, separated proteins are transferred to a membrane and probed.

Chains of the proteins cited; added tags and fusions are not shown.
UniProt P03372: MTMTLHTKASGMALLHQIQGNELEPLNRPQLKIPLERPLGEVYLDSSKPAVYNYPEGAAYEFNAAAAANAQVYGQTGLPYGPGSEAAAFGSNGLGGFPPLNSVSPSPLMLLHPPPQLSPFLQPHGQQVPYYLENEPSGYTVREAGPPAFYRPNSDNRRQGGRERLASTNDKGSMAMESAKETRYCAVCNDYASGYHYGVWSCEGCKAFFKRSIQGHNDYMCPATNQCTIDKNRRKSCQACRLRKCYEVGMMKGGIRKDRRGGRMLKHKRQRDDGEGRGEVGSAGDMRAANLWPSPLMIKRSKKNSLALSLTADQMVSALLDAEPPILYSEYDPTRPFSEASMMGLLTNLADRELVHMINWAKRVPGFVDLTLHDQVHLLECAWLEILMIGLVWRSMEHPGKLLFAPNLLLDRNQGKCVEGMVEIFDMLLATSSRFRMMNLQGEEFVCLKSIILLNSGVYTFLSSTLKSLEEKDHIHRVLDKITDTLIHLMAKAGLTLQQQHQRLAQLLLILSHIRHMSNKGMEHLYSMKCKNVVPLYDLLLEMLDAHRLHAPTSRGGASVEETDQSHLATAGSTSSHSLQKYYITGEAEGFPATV
UniProt O14733: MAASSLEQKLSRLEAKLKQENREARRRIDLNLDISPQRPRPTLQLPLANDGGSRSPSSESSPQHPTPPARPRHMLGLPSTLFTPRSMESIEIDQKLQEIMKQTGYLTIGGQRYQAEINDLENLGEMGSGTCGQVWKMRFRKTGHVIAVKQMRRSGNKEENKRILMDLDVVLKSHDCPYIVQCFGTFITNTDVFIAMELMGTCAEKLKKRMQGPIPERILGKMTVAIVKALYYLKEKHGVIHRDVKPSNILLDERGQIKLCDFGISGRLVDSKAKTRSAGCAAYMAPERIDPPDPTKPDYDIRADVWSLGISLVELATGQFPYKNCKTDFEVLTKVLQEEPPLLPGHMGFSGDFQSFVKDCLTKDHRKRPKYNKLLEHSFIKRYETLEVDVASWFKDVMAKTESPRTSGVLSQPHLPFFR

For assay [2], the target named is estrogen receptor alpha (ERα), endogenous in HAEC (human (endogenous in HAEC)) (UniProt P03372). Described as above.
Assay [3] has as its target MKK7, endogenous in HAEC (human (endogenous in HAEC)) (UniProt O14733). The assay can be described thus: co-IP; HAEC with endogenous septin 11 knocked down by shRNA and reconstituted by lentivirus with wild-type septin 11, septin 11-∆G4 or septin 11-∆GTP; vehicle or 27HC; immunoblot.
The target in assay [4] is HA-MKK7 (UniProt O14733). The assay can be described thus: pull-down; HA-tagged MKK7 bound to beads, complex with GADD45β formed first, then wild-type septin 11 or deletion mutants added; immunoblot (Fig. 4g); both purified.
In assay [5] the target is HA-MKK7 (UniProt O14733). In words: pull-down; purified recombinant tagged proteins; bait on beads pre-blocked with 1% BSA, 1 h at 37 °C, prey added 1 h at 37 °C; immunoblot (Supplementary Fig. 9b, c); both purified.
Assay [6] has as its target MKK7, endogenous in HAEC (human (endogenous in HAEC)) (UniProt O14733). In words: co-IP; endogenous proteins in HAEC lysate (25 mM Tris-HCl pH 7.4, 150 mM NaCl, 1% NP-40, 1 mM EDTA, 5% glycerol); IP with anti-ERα, anti-septin 11 or anti-MKK7, 4 °C overnight; cells treated with vehicle, E2 or 27HC (0 to 30 min); immunoblot.

Results are given in words; binding and its absence hold for the method and conditions named. For some assays here: In cells and extracts the contact can be indirect. Some results given as binding are weak or reduced against the parent protein; the word gives no strength. For some assays here: Sequences can lack the tags named with a protein.

In the case of “MKK7, endogenous in HAEC (from UniProt O14733 1-419) (enzyme)”, the binding result in assay [1] is “binds”.

B1: septin 11, endogenous in HAEC (protein, UniProt Q9NVA2 1-429)
chain: MAVAVGRPSNEELRNLSLSGHVGFDSLPDQLVNKSTSQGFCFNILCVGETGIGKSTLMDTLFNTKFESDPATHNEPGVRLKARSYELQESNVRLKLTIVDTVGFGDQINKDDSYKPIVEYIDAQFEAYLQEELKIKRSLFNYHDTRIHACLYFIAPTGHSLKSLDLVTMKKLDSKVNIIPIIAKADTIAKNELHKFKSKIMSELVSNGVQIYQFPTDEETVAEINATMSVHLPFAVVGSTEEVKIGNKMAKARQYPWGVVQVENENHCDFVKLREMLIRVNMEDLREQTHTRHYELYRRCKLEEMGFKDTDPDSKPFSLQETYEAKRNEFLGELQKKEEEMRQMFVMRVKEKEAELKEAEKELHEKFDLLKRTHQEEKKKVEDKKKELEEEVNNFQKKKAAAQLLQSQAQQSGAQQTKKDKDKKNASFT
On to B1, for which the binding result in assay [2] was “binds”.

B2: wild-type septin 11, reconstituted in HAEC by lentivirus (protein, UniProt Q9NVA2 1-429)
chain: MAVAVGRPSNEELRNLSLSGHVGFDSLPDQLVNKSTSQGFCFNILCVGETGIGKSTLMDTLFNTKFESDPATHNEPGVRLKARSYELQESNVRLKLTIVDTVGFGDQINKDDSYKPIVEYIDAQFEAYLQEELKIKRSLFNYHDTRIHACLYFIAPTGHSLKSLDLVTMKKLDSKVNIIPIIAKADTIAKNELHKFKSKIMSELVSNGVQIYQFPTDEETVAEINATMSVHLPFAVVGSTEEVKIGNKMAKARQYPWGVVQVENENHCDFVKLREMLIRVNMEDLREQTHTRHYELYRRCKLEEMGFKDTDPDSKPFSLQETYEAKRNEFLGELQKKEEEMRQMFVMRVKEKEAELKEAEKELHEKFDLLKRTHQEEKKKVEDKKKELEEEVNNFQKKKAAAQLLQSQAQQSGAQQTKKDKDKKNASFT
For the molecule B2, the binding entry in assay [3] is listed as “binds”.

B3: flag-septin 11-WT (wild-type) (protein, UniProt Q9NVA2 1-429)
chain: MAVAVGRPSNEELRNLSLSGHVGFDSLPDQLVNKSTSQGFCFNILCVGETGIGKSTLMDTLFNTKFESDPATHNEPGVRLKARSYELQESNVRLKLTIVDTVGFGDQINKDDSYKPIVEYIDAQFEAYLQEELKIKRSLFNYHDTRIHACLYFIAPTGHSLKSLDLVTMKKLDSKVNIIPIIAKADTIAKNELHKFKSKIMSELVSNGVQIYQFPTDEETVAEINATMSVHLPFAVVGSTEEVKIGNKMAKARQYPWGVVQVENENHCDFVKLREMLIRVNMEDLREQTHTRHYELYRRCKLEEMGFKDTDPDSKPFSLQETYEAKRNEFLGELQKKEEEMRQMFVMRVKEKEAELKEAEKELHEKFDLLKRTHQEEKKKVEDKKKELEEEVNNFQKKKAAAQLLQSQAQQSGAQQTKKDKDKKNASFT
As to B3, the binding result in the assay with HA-MKK7 [4] and with HA-MKK7 [5] was “binds” each time.

B4: flag-septin 11-∆G4 (protein, UniProt Q9NVA2)
chain: MAVAVGRPSNEELRNLSLSGHVGFDSLPDQLVNKSTSQGFCFNILCVGETGIGKSTLMDTLFNTKFESDPATHNEPGVRLKARSYELQESNVRLKLTIVDTVGFGDQINKDDSYKPIVEYIDAQFEAYLQEELKIKRSLFNYHDTRIHACLYFIAPTGHSLKSLDLVTMKKLDSKVNIIPIIALHKFKSKIMSELVSNGVQIYQFPTDEETVAEINATMSVHLPFAVVGSTEEVKIGNKMAKARQYPWGVVQVENENHCDFVKLREMLIRVNMEDLREQTHTRHYELYRRCKLEEMGFKDTDPDSKPFSLQETYEAKRNEFLGELQKKEEEMRQMFVMRVKEKEAELKEAEKELHEKFDLLKRTHQEEKKKVEDKKKELEEEVNNFQKKKAAAQLLQSQAQQSGAQQTKKDKDKKNASFT
B4: the binding result with HA-MKK7 [5] is “no binding”.

B5: septin 11-∆G4, reconstituted in HAEC by lentivirus (protein, UniProt Q9NVA2)
chain: MAVAVGRPSNEELRNLSLSGHVGFDSLPDQLVNKSTSQGFCFNILCVGETGIGKSTLMDTLFNTKFESDPATHNEPGVRLKARSYELQESNVRLKLTIVDTVGFGDQINKDDSYKPIVEYIDAQFEAYLQEELKIKRSLFNYHDTRIHACLYFIAPTGHSLKSLDLVTMKKLDSKVNIIPIIALHKFKSKIMSELVSNGVQIYQFPTDEETVAEINATMSVHLPFAVVGSTEEVKIGNKMAKARQYPWGVVQVENENHCDFVKLREMLIRVNMEDLREQTHTRHYELYRRCKLEEMGFKDTDPDSKPFSLQETYEAKRNEFLGELQKKEEEMRQMFVMRVKEKEAELKEAEKELHEKFDLLKRTHQEEKKKVEDKKKELEEEVNNFQKKKAAAQLLQSQAQQSGAQQTKKDKDKKNASFT
In the case of B5, the binding result in assay [3] is on record as “no binding”.

B6: flag-septin 11-∆GTP (protein, UniProt Q9NVA2)
chain: MAVAVGRPSNEELRNLSLSGHVGFDSLPDQLVNKSTSMGFKDTDPDSKPFSLQETYEAKRNEFLGELQKKEEEMRQMFVMRVKEKEAELKEAEKELHEKFDLLKRTHQEEKKKVEDKKKELEEEVNNFQKKKAAAQLLQSQAQQSGAQQTKKDKDKKNASFT
Take B6: the binding entry with HA-MKK7 [5] is recorded as “no binding”.

B7: septin 11-∆GTP, reconstituted in HAEC by lentivirus (protein, UniProt Q9NVA2)
chain: MAVAVGRPSNEELRNLSLSGHVGFDSLPDQLVNKSTSMGFKDTDPDSKPFSLQETYEAKRNEFLGELQKKEEEMRQMFVMRVKEKEAELKEAEKELHEKFDLLKRTHQEEKKKVEDKKKELEEEVNNFQKKKAAAQLLQSQAQQSGAQQTKKDKDKKNASFT
Turning to B7, in assay [3], the binding entry was “no binding”.

B8: GADD45β, endogenous in HAEC (protein, UniProt O75293 1-160)
chain: MTLEELVACDNAAQKMQTVTAAVEELLVAAQRQDRLTVGVYESAKLMNVDPDSVVLCLLAIDEEEEDDIALQIHFTLIQSFCCDNDINIVRVSGMQRLAQLLGEPAETQGTTEARDLHCLLVTNPHTDAWKSHGLVEVASYCEESRGNNQWVPYISLQER
On to B8, for which the binding result in assay [6] is reported as “binds”.

B9: c-Myc-GADD45β (protein, UniProt O75293 1-160)
chain: MTLEELVACDNAAQKMQTVTAAVEELLVAAQRQDRLTVGVYESAKLMNVDPDSVVLCLLAIDEEEEDDIALQIHFTLIQSFCCDNDINIVRVSGMQRLAQLLGEPAETQGTTEARDLHCLLVTNPHTDAWKSHGLVEVASYCEESRGNNQWVPYISLQER
For the molecule B9, the binding result with HA-MKK7 [4] is listed as “binds”.

The values are drawn from publication PMC10368733.
